The other results are listed elsewhere or left out. Cut-off read from the data, not from the text of the source: active = 3.2 or more and inactive = the rest. Most of these values are background signal.

This note sets out measurements from the supplement of paper PMC10369915.

B1: PTPN11_Y304 (peptide)
chain: EPVSDYINANI
B2: PTEN_Y178_YF (peptide)
chain: RFVFFYSFLLK
B3: PTEN_Y180 (peptide)
chain: VYYYSYLLKNH
B4: PTK2B_Y834_K838T (peptide)
chain: LDPMVYMNDTS
B5: PTGS1_Y54_R53H (peptide)
chain: FGLDHYQCDCT
B6: PTK2_Y397 (peptide)
chain: SETDDYAEIID
B7: PTEN_Y178_R173H (peptide)
chain: HYVYYYSYLLK
B8: PTEN_Y177_R173C_YF (peptide)
chain: RCFVFYFSFLL
B9: PTEN_Y178_R173C_YF (peptide)
chain: CFVFFYSFLLK
B10: PTEN_Y68_Y68C_YF (peptide)
chain: NHFKICNLCAE
B11: PTEN_Y68_C71Y (peptide)
chain: NHYKIYNLYAE
B12: PTEN_Y27 (peptide)
chain: DLDLTYIYPNI
B13: PTPN11_Y279 (peptide)
chain: KNKNRYKNILP
B14: PTEN_Y178 (peptide)
chain: RYVYYYSYLLK
B15: PTEN_Y68_YF (peptide)
chain: NHFKIYNLCAE
B16: PTPN11_Y263_L262F (peptide)
chain: ECKLFYSRKEG
B17: PTPN11_Y263 (peptide)
chain: ECKLLYSRKEG
B18: PTPN11_Y263_R265Q (peptide)
chain: ECKLLYSQKEG
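Note: displayed peptides selected on beads carrying the immobilized SH2 domain, with library peptides lacking any tyrosine serving as negative controls.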

One assay deals with SHP2 C-SH2 domain E139D. Kind of assay: enrichment score (SH2-bound / input frequency) (ratio); bacterial display of known human phosphotyrosine sites (pTyr-Var adds point mutants) read by sequencing; higher = stronger binding; tyrosines were phosphorylated by kinases first. As to conditions: peptide library: pTyr-Var.
B1: the enrichment score was inactive: 0.624.
Turning to B2, the enrichment score was inactive: 1.49.
Consider B3, for which the enrichment score is inactive: 1.43.
Turning to B4, the enrichment score is inactive: 1.04.
On to B5, for which the enrichment score is inactive: 1.37.
Turning to B6, the enrichment score is inactive: 0.421.
As for B7, the enrichment score is inactive: 0.778.
For B8, the enrichment score was inactive: 1.52.
As to B9, the enrichment score was inactive: 1.71.
For the molecule B10, the enrichment score was inactive: 2.63.
Take B11: the enrichment score is inactive: 0.651.
Still for that read-out and setting: the value for B12 was inactive: 1.06.
On the same count and under the same terms, as for B13, the figure is inactive: 0.777; as for B14, inactive: 2.18.
B15: the enrichment score was inactive: 0.633.
Consider B16, for which the enrichment score was inactive: 0.423.
For B17, the enrichment score is inactive: 0.666.
In the case of B18, the enrichment score was inactive: 0.816.

Another assay concerns the target SHP2 C-SH2 domain wild-type. Described as above. As to conditions: peptide library: pTyr-Var.
In the case of B1, the enrichment score is inactive: 0.779.
B2: the enrichment score was inactive: 1.23.
For the molecule B3, the enrichment score is inactive: 1.5.
In the case of B4, the enrichment score was inactive: 1.05.
Consider B5, for which the enrichment score is inactive: 1.24.
On the same count and under the same terms, as for B6, the figure is inactive: 0.463; as for B7, inactive: 1.01.
For the molecule B8, the enrichment score is inactive: 1.16.
As for B9, the enrichment score was inactive: 2.05.
For B10, the enrichment score was inactive: 2.77.
On to B11, for which the enrichment score was inactive: 0.81.
As for B12, the enrichment score was inactive: 0.99.
As for B13, the enrichment score was inactive: 0.64.
Regarding B14, the enrichment score was inactive: 2.09.
Regarding B15, the enrichment score was inactive: 0.527.
The same measure, in the same setting: the value for B16 was inactive: 0.397; that for B17 was inactive: 0.657; that for B18 was inactive: 0.843.

The target in the next assay is SHP2 N-SH2 domain L43F. The description is as above. As to conditions: peptide library: pTyr-Var.
With B1, the enrichment score was inactive: 0.689.
As for B2, the enrichment score is inactive: 1.27.
With B3, the enrichment score was inactive: 1.63.
For B4, the enrichment score is inactive: 1.2.
Turning to B5, the enrichment score is inactive: 1.32.
The same measure, in the same setting: as for B6, the figure is inactive: 0.447; as for B7, inactive: 0.689.
With B8, the enrichment score was inactive: 0.953.
Turning to B9, the enrichment score was inactive: 2.02.
Still for that read-out and setting: as for B10, the figure is inactive: 2.87; as for B11, inactive: 0.886.
On to B12, for which the enrichment score is inactive: 0.886.
On to B13, for which the enrichment score is inactive: 0.839.
Take B14: the enrichment score is inactive: 2.21.
As for B15, the enrichment score was inactive: 1.
As for B16, the enrichment score was inactive: 0.401.
Regarding B17, the enrichment score is inactive: 0.439.
For the molecule B18, the enrichment score was inactive: 0.6.

The target in a further assay is SHP2 N-SH2 domain T42A. The assay is described as above. To be noted: peptide library: pTyr-Var.
As to B1, the enrichment score is inactive: 0.62.
Take B2: the enrichment score was inactive: 1.26.
Take B3: the enrichment score is inactive: 1.18.
The same measure, in the same setting: as for B4, the figure is inactive: 1.39; as for B5, inactive: 1.21; as for B6, inactive: 0.448.
As for B7, the enrichment score was inactive: 0.63.
In the case of B8, the enrichment score is inactive: 1.12.
The same measure, in the same setting: as for B9, the figure is inactive: 1.93; as for B10, inactive: 2.3; as for B11, inactive: 0.651.
Take B12: the enrichment score was inactive: 0.737.
The same measure, in the same setting: the value for B13 was inactive: 0.918; that for B14 was inactive: 2.19; that for B15 was inactive: 0.599.
On to B16, for which the enrichment score was inactive: 0.413.
With B17, the enrichment score was inactive: 0.579.
B18: the enrichment score is inactive: 0.766.

A further assay has as its target SHP2 N-SH2 domain T52S. The description is as above. To be noted: peptide library: pTyr-Var.
Turning to B1, the enrichment score was inactive: 0.558.
As to B2, the enrichment score is inactive: 1.3.
Still for that read-out and setting: the value for B3 was inactive: 1.36; that for B4 was inactive: 0.807; that for B5 was inactive: 1.22.
Still for that read-out and setting: as for B6, the figure is inactive: 0.5.
Take B7: the enrichment score is inactive: 0.847.
Consider B8, for which the enrichment score was inactive: 1.58.
For B9, the enrichment score was inactive: 1.98.
As to B10, the enrichment score was inactive: 2.7.
In the case of B11, the enrichment score was inactive: 0.817.
Consider B12, for which the enrichment score was inactive: 0.985.
With B13, the enrichment score is inactive: 0.728.
In the case of B14, the enrichment score is inactive: 2.28.
Turning to B15, the enrichment score was inactive: 0.88.
B16: the enrichment score is inactive: 0.606.
Regarding B17, the enrichment score was inactive: 0.693.
For the molecule B18, the enrichment score was inactive: 0.659.

Another assay concerns the target SHP2 N-SH2 domain wild-type. The assay is described as above. As to conditions: peptide library: pTyr-Var.
Consider B1, for which the enrichment score was inactive: 0.68.
Take B2: the enrichment score is inactive: 0.774.
Consider B3, for which the enrichment score was inactive: 1.19.
Consider B4, for which the enrichment score was inactive: 1.01.
As for B5, the enrichment score is inactive: 1.16.
Regarding B6, the enrichment score is inactive: 0.618.
In the case of B7, the enrichment score was inactive: 1.2.
With B8, the enrichment score is inactive: 1.08.
For the molecule B9, the enrichment score was inactive: 1.57.
B10: the enrichment score was inactive: 2.43.
Take B11: the enrichment score is inactive: 0.799.
Turning to B12, the enrichment score is inactive: 0.985.
For B13, the enrichment score is inactive: 0.904.
Turning to B14, the enrichment score is inactive: 2.35.
With B15, the enrichment score is inactive: 0.478.
As to B16, the enrichment score was inactive: 0.358.
As to B17, the enrichment score was inactive: 0.537.
Regarding B18, the enrichment score is inactive: 0.979.
